These results are taken from PMC11653366 (2024).

One experiment concerns the target T1, F*-PLLP.
T1 chain: LASRPLPLLP
The experiment in a line: fluorescence anisotropy. (In fluorescence polarisation assays a small probe gives low polarisation when free and higher when bound to something large.)

In a further experiment the target is T2, F*-p40.
T2 chain: APTYSPPPPP
Kind of experiment: fluorescence anisotropy.

B1: W122C SrcAbl SH3 84-145 (protein)
chain: GGVTTFVALYDYVASGDNDLSFKKGERLQIVNNHNGEWCLAHSLSTGQTGYIPSNYVAPSDS
In the case of B1, the Kd in the experiment with F*-PLLP was above 1000 µM; in the experiment with F*-p40 it was 450 µM.

For orientation: Kd means the constant that tells how readily two partners part at equilibrium. Low readings indicate tighter binding, high ones weaker binding.
